“And” between values parts separate entries of the source, which are not always exact repeats. Equal values may be shown once. The whole screen tested about 50,000 compounds, of which about 800 (1.6%) showed an effect of 50% or more. The list shows a part of the results.
The compounds below were run against Bcl-2-like protein 10 (Homo sapiens) (UniProt Q9HD36) (assay: TR3 peptide-Bcl-B binding displacers, biochemical primary FP assay, phenotype converters (AID 1240;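 further: 0% = Bcl-B with tracer peptide and DMSO and 100% = tracer peptide lacking Bcl-B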)). Settings: GST-Bcl-B / FITC-TR3 peptide fluorescence polarization; stronger effect = higher value; compound at 3.75 mg/L.
UniProt Q9HD36, sequence (Q9HD36 whole entry, looked up): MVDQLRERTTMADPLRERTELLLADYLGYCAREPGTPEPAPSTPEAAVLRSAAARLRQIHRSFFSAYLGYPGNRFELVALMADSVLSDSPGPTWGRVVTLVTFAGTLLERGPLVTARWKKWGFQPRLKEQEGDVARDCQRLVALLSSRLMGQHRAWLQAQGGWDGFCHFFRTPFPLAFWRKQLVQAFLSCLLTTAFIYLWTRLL
Compound `COc1ccc(/C=C2\SC(=S)N(c3cccc(C)c3C)C2=O)cc1OC` has a displacement of 10.6%.
`CCOC(=O)COc1ccc(/C=c2\sc3nc4ccccc4n3c2=O)cc1` showed a displacement of -5.4%.
For `CCOc1ccc2nc(SCC(=O)c3ccc(C)cc3C)sc2c1`, the displacement was 4.9%.
`COc1ccc(NC(=O)c2cc3ccccc3oc2=O)c(OC)c1` gave a displacement of 7.1%.
Work on `O=C(c1ccco1)N1CCN(Cc2cccc(F)c2)CC1` yielded a displacement of 3.8%.
Compound `CC(=O)c1cccc(NC(=O)CCCOc2ccccc2)c1` has a displacement of -3.2%.
With `Cc1ccc(-c2[nH]n3c(=O)c4c(nc3c2C)CCCC4)cc1` the displacement was -2.2%.
For `Cc1cc(C)nc(NS(=O)(=O)c2ccc(N/C=C\C(=O)c3ccc(Cl)cc3)cc2)n1`, the displacement was 28%.
Compound `O=C(N/N=C/c1ccc(O)c(O)c1)c1ccc(-c2ccccc2)cc1` has a displacement of -9.7%.
With `Cc1cc(NC(=O)c2cccc(N(C)C)c2)ccc1Br` the displacement was 14.9%.
For `O=C(/C=C/c1ccco1)Nc1ccc(C(=O)Nc2cccc(-c3nc4ccccc4o3)c2)cc1`, the displacement was 12.3%.
`CCCC/C(CC)=N\NC(=O)c1cc([N+](=O)[O-])cc([N+](=O)[O-])c1` showed a displacement of 7.3%.
In the case of `CN(C)c1ccc(/C=C2\C(=O)NC(=O)N(c3ccc(Cl)cc3)C2=O)cc1Br`, the displacement is reported as 10.5%.
Work on `C=C(C)c1cccc(C(C)(C)NC(=O)Nc2ccc(I)cc2)c1` yielded a displacement of -4.5%.
Compound `CC(O)CNC(=O)C1CC(=O)N(c2ccc(Br)cc2)C1` (configuration not stated) has a displacement of 10.9%.
`COC(=O)c1cc(O)cc(S(=O)(=O)c2ccc(C)cc2)c1O` was tested, and the displacement was 5.8%.
In the case of `O=C(Nc1ccc2c3c(cccc13)CC2)c1ccccc1I`, the displacement is reported as -7.9%.
For `Cc1n[nH]c(C)c1Sc1ccccc1N=Cc1ccc(Cl)cc1Cl`, the displacement was 6.2%.
`Cc1cc(C(=O)Nc2cccc(C(=O)O)c2)c(C)o1` showed a displacement of -1.1%.
For `O=c1[nH]c(SCCc2ccccc2)nc2ccccc12`, the displacement was -0.6%.
`C=CCNCC(=O)Nc1sc2c(c1C(=O)OCC)CCCC2` was tested, and the displacement was 10.8%.
Compound `COc1ccc(CSc2n[nH]c(-c3ccc(OC)cc3)n2)cc1` has a displacement of 4.6%.
With `Cc1cccc(Nc2ccc([N+](=O)[O-])c3nonc23)c1` the displacement was 1.8%.
`N#C/C(=C\c1ccc(-c2ccc(Cl)c(C(=O)O)c2)o1)C(=O)NCC1CCCO1` (configuration not stated) gave a displacement of -20.9%.
In the case of `COc1ccc(-n2c(C)ccc2-c2ccccc2)cc1`, the displacement is reported as -12.8%.
`Cc1cccc(OCC(=O)NNC(=O)c2ccccc2C)c1` showed a displacement of -8%.
`COC(=O)Cn1cnc2ccccc2c1=O` gave a displacement of 0.1%.
`O=C(Nc1ccc2c(c1)OCCO2)c1ccc(Br)o1` showed a displacement of 10%.
`CCOC(=O)c1c(NC(=O)C2C3CCC(O3)C2C(=O)O)sc2c1CCCC2` (configuration not stated) showed a displacement of -11%.
`O=C1CC(N2CCN(c3ccc(F)cc3)CC2)C(=O)N1c1cc(Cl)cc(Cl)c1` (configuration not stated) gave a displacement of 8.7%.
In the case of `O=[N+]([O-])c1ccc(C2Nc3c(I)cccc3C3C=CCC32)cc1` (configuration not stated), the displacement is reported as -0.6%.
`Cc1ccc(S(=O)(=O)Nc2ccccc2C(=O)Nc2cccc3c2C(=O)c2ccccc2C3=O)cc1` gave a displacement of 14.7%.
`Cc1nc(NC(=O)C2C3CCC(O3)C2C(=O)O)sc1-c1ccccc1` (configuration not stated) showed a displacement of -10.9%.
Work on `Cc1cc(/C=N/NC(N)=S)c(C)n1-c1cccc(Cl)c1` yielded a displacement of -22.7%.
`O=C(Nc1ccc(-c2nc3cc(Cl)cc(Cl)c3o2)cc1)c1cccc([N+](=O)[O-])c1` showed a displacement of 62.7%.
Work on `COc1cccc(C2/C(=C(\O)c3ccccc3)C(=O)C(=O)N2CCCCCC(=O)O)c1` (configuration not stated) yielded a displacement of -10.4%.
For `O=C(NCc1ccc(Cl)cc1)C(=O)NC1CCCCC1`, the displacement was 10.3%.
`O=S1(=O)CCC(NS(=O)(=O)c2ccc(F)cc2)C1` (configuration not stated) was tested, and the displacement was -2.9%.
For `Cc1cccc(NC(=O)CN(c2ccc(F)cc2)S(=O)(=O)c2ccccc2)c1`, the displacement was -1.3%.
`COc1ccc(O)c(-c2cc(-c3ccccc3C)[nH]n2)c1` showed a displacement of 4.1%.
With `Cc1ccc(OCC(=O)O/N=C(\N)c2ccc(Cl)cc2)c(Br)c1` the displacement was 5.9%.
Work on `COC(=O)CN1C(=O)/C(=C/c2ccc(OCc3ccc(Cl)cc3)c(OC)c2)SC1=S` yielded a displacement of 87.2%.
With `CCOC(=O)c1c(NC(=O)C2COc3ccccc3O2)sc2c1CCC(C)C2` (configuration not stated) the displacement was 5%.
`CN1C(=O)/C(=C2\SC(=Nc3ccc(F)cc3)NC2=O)c2ccccc21` gave a displacement of 17.8%.
In the case of `CCOc1ccc(-c2csc(-c3cc4ccccc4oc3=O)n2)cc1`, the displacement is reported as -2.8%.
In the case of `CC1CCCC(C)C1NC1=C(Cl)C(=O)c2ccccc2C1=O` (configuration not stated), the displacement is reported as 9.6%.
For `CCN(CC)C(=O)CSc1nc(O)c(Cc2ccccc2)c(=O)n1-c1ccc(OC)cc1`, the displacement was 8.7%.
Compound `Cc1ccc(C2CC(C(F)(F)F)n3nc(C(=O)N4CCN(c5ccc(F)cc5)CC4)c(Cl)c3N2)cc1` (configuration not stated) has a displacement of 0.7%.
Work on `Cc1cc(C)cc(NC(=O)CN(c2ccc(Cl)cc2)S(C)(=O)=O)c1` yielded a displacement of 7.8%.
With `CC(C)(C)c1ccc(OC(=O)c2cccs2)cc1` the displacement was -8.4%.
With `CC1CN(C2CCCCC2)CCC1(O)c1ccccc1` (configuration not stated) the displacement was -8.9%.
For `Cc1cc(=O)n2cc(Br)ccc2n1`, the displacement was 0.1%.
For `CCOc1cccc(C(=O)Nc2cc3nn(-c4ccc(C)cc4)nc3cc2C)c1`, the displacement was 13.2%.
For `Cc1ccc(NC(=O)c2nc[nH]c2C(=O)N2CCCCC2)c(C(=O)c2ccccc2)c1`, the displacement was -6.4%.
Work on `O=C(Nc1cc(C(=O)Nc2ccc(Cl)cc2)cc(C(=O)Nc2ccc(Cl)cc2)c1)c1ccc([N+](=O)[O-])cc1` yielded a displacement of 3.3%.
`CCOC(=O)CSc1nc2sc3c(c2c(=O)n1-c1ccccc1)CCCCC3` gave a displacement of -2.7%.
`COc1ccc(Br)cc1/C=C/C(=O)Nc1ccc(Cl)cn1` showed a displacement of 13.4%.
For `CC(C)c1ccc(NC(=O)c2cccc(F)c2)cc1`, the displacement was -4.5%.
For `O=S1(=O)N=C(SCCO)c2ccccc21`, the displacement was -0.3%.
`NC(=O)CN1C(=O)/C(=C2\SC(=S)N(Cc3ccccc3)C2=O)c2ccccc21` was tested, and the displacement was 8.3%.
In the case of `COc1cccc(N(CC(=O)Nc2ccc3ccccc3c2)S(=O)(=O)c2ccccc2)c1`, the displacement is reported as -5.8%.
In the case of `COc1cc(C=Nc2ccc(Oc3ccc(N=Cc4ccc(O)c(OC)c4)cc3)cc2)ccc1O`, the displacement is reported as -4.1%.
In the case of `COc1cccc(C2/C(=C(\O)c3ccccc3)C(=O)C(=O)N2Cc2cccnc2)c1` (configuration not stated), the displacement is reported as 8.1%.
`O=C1OC(c2ccccc2F)=N/C1=C\c1ccccc1[N+](=O)[O-]` gave a displacement of 4.1%.
For `CCc1nc2c(c(=O)[nH]1)C1(CCCC1)Cc1ccccc1-2`, the displacement was -9.9%.
For `Cc1ccc(/C=C/C(=O)NCCc2ccccc2)o1`, the displacement was 22%.
With `O=C(c1ccc(N2CCN(C(=O)c3ccccc3)CC2)cc1)c1cccc(F)c1` the displacement was -11.7%.
With `COc1ccc(OC)c(/C=C2\C(=O)NN(c3ccccc3)C2=O)c1` the displacement was 11.5% and 10%.
`CCOc1ccccc1NC(=O)c1c(NC(=O)c2ccccc2)sc2c1CCC(C)C2` (configuration not stated) gave a displacement of -7.2%.
With `CN(C)CCCOC(=O)c1ccccc1` the displacement was 11.2%.
`Cc1cccc(N(CC(=O)NCCSc2nc3ccccc3s2)S(=O)(=O)c2ccccc2)c1` showed a displacement of 9.1%.
Compound `COc1cccc(N2C(=O)C(=O)/C(=C(\O)c3ccccc3)C2c2ccc(O)c(OC)c2)c1` (configuration not stated) has a displacement of 10.1%.
With `COC(=O)C1=C(C(=O)OC)SC(=C2C(=S)C(C)(C)N(C(=O)c3cccc([N+](=O)[O-])c3)c3ccc(OC)cc32)S1` the displacement was -4.6%.
`COC(=O)c1cc(NC(=O)C2CCCC2)cc(C(=O)OC)c1` gave a displacement of -10.4%.
With `Cc1ccc(S(=O)(=O)Nc2ccccc2C(=O)NCc2ccco2)cc1` the displacement was 9.3%.
`CC(=O)C1=C(O)C(=O)N(CCN(C)C)C1c1ccc(O)cc1` (configuration not stated) was tested, and the displacement was -4.8%.
With `CCCn1nc(CC(=O)O)c2ccccc2c1=O` the displacement was 4.4%.
`O=C(Nc1ncc(Cc2ccc(Cl)c(Cl)c2)s1)c1cccc([N+](=O)[O-])c1` showed a displacement of 5.9%.
Compound `Cc1cccc(C(=O)N2N=C(c3ccc(Cl)cc3)CC2(O)C(F)(F)F)c1O` (configuration not stated) has a displacement of 4.8%.
With `CC1=C(C(=O)OCc2ccccc2)C(c2ccc([N+](=O)[O-])cc2)C2=C(CC(C)(C)CC2=O)N1` (configuration not stated) the displacement was -4.7%.
In the case of `COc1ccc(CCN2C(=O)CC(Cc3ccc(Cl)cc3)C2=O)cc1OC` (configuration not stated), the displacement is reported as -19.7%.
With `COc1cccc(NC(=O)CN(c2ccc(Br)cc2)S(C)(=O)=O)c1` the displacement was 3.1%.
`COc1cc(/C=C2/C(=O)NN(c3ccc(Br)cc3)C2=O)c([N+](=O)[O-])cc1OC` was tested, and the displacement was 14.7%.
In the case of `O=C1C2C3C=CC(C3)C2C(=O)N1Nc1ccccc1` (configuration not stated), the displacement is reported as -0.8%.
Compound `COC(=O)c1cccc(NC(=O)CCOc2ccccc2)c1` has a displacement of 18.5%.
For `CCn1c(C)nc2c(CN(C)C)c(O)ccc21`, the displacement was -16.2%.
`O=C(COc1ccccc1Cl)NNC(=O)c1ccncc1` gave a displacement of -9.4%.
`NC(=O)C1CCN(S(=O)(=O)c2ccc([N+](=O)[O-])cc2)CC1` showed a displacement of -3.8%.
`CC(=O)Nc1ccc(S(=O)(=O)Nc2cccc(-c3nc4ccccc4[nH]3)c2)cc1` gave a displacement of 2%.
Compound `Cc1cc(/C=C2/NC(=O)NC2=O)c(C)n1-c1ccc(C(C)(C)C)cc1` has a displacement of 10.4%.
In the case of `CCOc1ccc2c(=O)c(Oc3ccc(OC)cc3)c(C(F)(F)F)oc2c1`, the displacement is reported as 10.5%.
`NC1=NC(=O)/C(=C\c2ccc(-c3ccccc3Cl)o2)S1` gave a displacement of 10.4%.
`N#Cc1c2n(c3c(=O)n(CC(=O)c4ccccc4)cnc13)CCCCC2` gave a displacement of 0.3%.
Compound `O=C(O)CCC(=O)N(CCc1ccccc1)C1CC(=O)N(c2ccc(Br)cc2)C1=O` (configuration not stated) has a displacement of -10.1%.
Work on `Cc1ccc(NC(=O)CN2CCOCC2)c(C(=O)c2ccccc2)c1` yielded a displacement of 14.6%.
Compound `O=C(COc1ccccc1)Nc1ccc([N+](=O)[O-])cc1` has a displacement of 14.1%.
With `COc1ccc(C(=O)Nc2ccc3nn(-c4ccc(F)cc4)nc3c2)cc1Br` the displacement was -0.2%.
With `O=C(Cc1ccc(Cl)cc1)NNC(=O)c1ccco1` the displacement was 2.8%.
`O=[N+]([O-])c1cc(Br)c2nsnc2c1N1CCOCC1` gave a displacement of 5.9%.
Work on `O=C(CSc1nc(O)cc(=O)[nH]1)c1ccc(O)cc1O` yielded a displacement of 3.2%.
For `Cc1ccc[n+](CC(=O)c2cc3ccccc3oc2=O)c1`, the displacement was 7.9%.
`O=C(/C=C/c1cccc(C(F)(F)F)c1)Nc1ccc(F)cc1` gave a displacement of 14.9%.
With `COc1ccc(N2C(=O)/C(=C/c3ccc(-c4ccc([N+](=O)[O-])c(C)c4)o3)SC2=S)cc1` the displacement was 3.3%.
For `O=C(Nc1cccc(Cl)c1)N(c1ccccn1)c1ccccn1`, the displacement was 2.4%.
`CN1C(=O)N(C)C2(c3ccccc3)N(C)C(=O)N(C)C12c1ccccc1` (configuration not stated) gave a displacement of -4.8%.
`Cn1c(/C=C/c2ccc(Br)cc2)nc2ccccc2c1=O` showed a displacement of -5.9%.
`CCOC(=O)N=Nc1c(O)[nH]c2ccc(OC)cc12` gave a displacement of -3.6%.
